Assay results: article PMC4336329 (PLoS ONE, 2015)
In all, about 310,000 compounds went through this assay and about 14,000 (4.5%) showed an effect of 50% or more. Effects have a minus sign here. The list shows a part of the results.

target: human ether-à-go-go-related gene (hERG) potassium channel (human, UniProt Q12809); experiment: primary screen, population patch clamp on CHO cells stably expressing hERG
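Further: peak tail current of the secondary pulse compared with the same well before compound.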

Sequence of human ether-à-go-go-related gene (hERG) potassium channel (Q12809 whole entry, looked up): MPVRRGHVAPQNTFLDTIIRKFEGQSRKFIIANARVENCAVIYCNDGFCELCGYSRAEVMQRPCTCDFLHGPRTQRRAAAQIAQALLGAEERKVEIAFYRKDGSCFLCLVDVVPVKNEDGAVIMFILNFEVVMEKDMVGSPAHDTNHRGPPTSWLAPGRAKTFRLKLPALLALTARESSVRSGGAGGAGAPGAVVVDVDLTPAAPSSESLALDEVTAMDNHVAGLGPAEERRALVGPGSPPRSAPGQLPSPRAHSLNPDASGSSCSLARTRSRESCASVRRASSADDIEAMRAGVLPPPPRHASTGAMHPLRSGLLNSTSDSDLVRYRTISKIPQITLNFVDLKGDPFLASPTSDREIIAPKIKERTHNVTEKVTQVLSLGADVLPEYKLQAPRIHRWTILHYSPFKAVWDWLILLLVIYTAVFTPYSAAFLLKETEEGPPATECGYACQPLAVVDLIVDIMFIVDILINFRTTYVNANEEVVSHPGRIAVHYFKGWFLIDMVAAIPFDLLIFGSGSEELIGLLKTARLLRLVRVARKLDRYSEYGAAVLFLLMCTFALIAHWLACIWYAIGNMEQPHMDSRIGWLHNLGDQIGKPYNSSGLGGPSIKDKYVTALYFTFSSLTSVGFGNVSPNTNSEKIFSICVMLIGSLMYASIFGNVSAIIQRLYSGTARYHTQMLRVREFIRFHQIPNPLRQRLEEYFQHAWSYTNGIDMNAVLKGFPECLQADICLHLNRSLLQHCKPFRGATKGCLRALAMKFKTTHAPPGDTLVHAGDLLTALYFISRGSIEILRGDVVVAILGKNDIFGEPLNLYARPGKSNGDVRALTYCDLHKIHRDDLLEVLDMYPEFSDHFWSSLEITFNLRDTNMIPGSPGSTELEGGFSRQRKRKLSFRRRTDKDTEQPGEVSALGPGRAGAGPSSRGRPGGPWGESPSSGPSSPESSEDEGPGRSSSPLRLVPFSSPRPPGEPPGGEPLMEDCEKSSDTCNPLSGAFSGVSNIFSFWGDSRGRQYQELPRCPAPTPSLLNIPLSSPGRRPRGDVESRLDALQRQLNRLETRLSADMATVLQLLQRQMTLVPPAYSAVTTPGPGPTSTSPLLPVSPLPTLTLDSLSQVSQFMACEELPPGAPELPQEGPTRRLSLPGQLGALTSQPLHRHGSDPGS

Structure (SMILES)	hERG current change (%, negative = inhibition) at 10uM
Cc1ccc(/C([O-])=C(/C(=S)NCc2ccccc2)[n+]2ccccc2)cc1[N+](=O)[O-]	14.4%
CCCCNc1nc(Nc2ccc(C)c(Cl)c2)c2cnn(C)c2n1	15.3%
CCCCCCC/C(C)=N/NC(=O)CC(=O)NCCc1ccccc1	-2%
CCCS(=O)(=O)c1nc(S(=O)(=O)c2ccc(C)cc2)c(N2CCC(C)CC2)s1	-0.508%
CCCc1cc(C(=O)N(C)CC(=O)Nc2ccc(OCC)c(OCC)c2)sc1C	-24.6%
CC(C)c1cc(C(F)(F)F)n2nc(C(=O)O)cc2n1	-10.6%
Cc1ccc(-n2ncc3c(=O)n(CC#N)cnc32)cc1	-5.68%
Cc1ccc(N2CC(c3nc4ccccc4[nH]3)CC2=O)c(C)c1 (centres unmarked)	-4.29%
CCOc1ccccc1N(CC(=O)Nc1ccc(S(=O)(=O)N2CCOCC2)cc1)S(=O)(=O)c1ccc(Cl)cc1	-4.59%
CN(C)c1ccc(C(=O)Nc2cccc(S(=O)(=O)N3CCCC3)c2)cc1	-2.51%
Cc1ccc(NC(=O)/C=C/c2ccc3c(c2)OCO3)cc1S(=O)(=O)N1CCOCC1	-13%
Cc1cc(C)n(S(=O)(=O)c2ccc3oc(=O)ccc3c2)n1	-8.4%
O=C(CCS(=O)(=O)c1ccc(Cl)cc1)Nc1ccc(F)cc1	0.345%
COc1ccc(NC(=O)C(c2ccc(C)cc2)N(C)C(=O)Cc2cccs2)cc1 (centres unmarked)	-11%
O=C1C2C3C=CC(C3)C2C(=O)N1CCC(=O)N1CCc2ccccc21 (centres unmarked)	-15.3%
Cl.NCCNC(=O)c1ncsc1-c1cccc(F)c1	17.4%
O=C(CCC(=O)Nc1ccc(Br)cc1)N/N=C/c1ccc(F)cc1	7.04%
Cn1c(=O)c2c(=O)cc(NNC(=O)CC#N)[nH]c2n(C)c1=O	16.6%
CC1=CC(C)C2(COC(=O)Nc3ccccc3)COC(C)C1C2C (centres unmarked)	-3.03%

Structure (SMILES)	hERG current change (%, negative = inhibition) at 10uM
CCc1c(C)nc2ncnn2c1N1CCN(S(=O)(=O)c2ccc(OC)cc2)CC1	-36%
Cc1cc(C)nc(NC(=O)Nc2ccc(F)cc2F)n1	-3.43%
Cc1cccc(N=C2NN=C(c3ccc4c(c3)OCCO4)CS2)c1	-3.09%
Cc1ccc(C(C)C)c(OCCN)c1.Cl	7.99%
COc1cccc(C(=O)CC(=O)C(=O)Nc2ccc([N+](=O)[O-])cc2C)c1	15.7%
COc1ccccc1N1CCN(Cc2ccc(OC)c3ccccc23)CC1	-5.46%
COc1ccc(NC(=O)CSc2nnc(Cn3c(=O)sc4ccccc43)n2C)c(OC)c1	-21.3%
COc1ccc(CNC(=O)CN2CCN(c3cccc(C)c3C)CC2)cc1	-8.46%
CCC(=O)N(CC)c1nc(-c2cc(OC)ccc2OC)cs1	15%
CC(=O)Nc1ccc(NC2(C)C(=O)c3ccccc3C2=O)cc1	0.43%
Nc1nc(C23CC4CC(CC(C4)C2)C3)[nH]c(=O)n1	17.8%
Cc1cccc2cc(C(c3nnnn3C(C)(C)C)N(Cc3ccco3)CC3CCCO3)c(=O)[nH]c12 (centres unmarked)	-33.3%
CC(=O)Nc1cc(-c2ccc(F)cc2)[nH]n1	15.5%
COCCNC(=O)CSc1nc2ccccc2c(=O)n1CCC(=O)NCCc1ccc(OC)c(OC)c1	11.8%
CCOC(=O)c1c(C)[nH]c(C(=O)CSc2nnc(-c3ccncc3)n2CC)c1C	-23.3%
c1ccc(OCc2nnc3sc(C4COc5ccccc5O4)nn23)cc1 (centres unmarked)	4.11%
c1ccc(OCc2nn3c(C4CCCCC4)nnc3s2)cc1	-6.62%
Cc1cc(OCC(=O)NCc2nc(-c3ccccc3)no2)c(C)cc1Br	15.5%
NC(=O)CC(NC(=O)Cc1ccc(Cl)cc1)c1ccc(NCCc2ccccc2F)c([N+](=O)[O-])c1 (centres unmarked)	-12.5%

Structure (SMILES)	hERG current change (%, negative = inhibition) at 10uM
NNC(=O)COc1ccc(-c2n[nH]c(C(F)(F)F)c2-c2ccc(Br)cc2)c(O)c1	2.84%
CCN(CC)Cc1c(C(=O)N2CCc3ccccc3C2)nc2ccc(Cl)cn12	-13.1%
O=C(Nc1ccccc1N1CCOCC1)c1ccc(N2CCCC2=O)cc1	-11.8%
CSc1nc2sc3c(c2c(=O)[nH]1)CCCC3	13.9%
Cc1nc2c(C#N)c(-c3ccc(Cl)cc3)ccn2n1	2.92%
Cc1ccc(N2CCCCn3c2nc2c3c(=O)[nH]c(=O)n2C)cc1	-16.5%
CC(C)Oc1cccc(C(=O)N2CCCC2)c1	9.89%
CCOC(=O)c1ccc(CSc2nncn2N)o1	22.4%
O=C([O-])c1ccccc1-[n+]1c(-c2ccccc2)cc(-c2ccccc2)cc1-c1ccccc1	-3.82%
CSc1ncc(C(=O)Nc2ccccc2C)c(C)n1	12.5%
COc1cccc(C2/C(=C(\O)c3ccc4c(c3)OCCO4)C(=O)C(=O)N2Cc2cccnc2)c1 (centres unmarked)	11.1%
CCc1noc(C)c1C(=O)Nc1cc(S(=O)(=O)N2CCCCC2)ccc1N(C)C	-12.9%
O=C(C[N+]1(CC#Cc2ccccc2)CCCCC1)c1ccccc1.[Br-]	-3.09%
COc1ccc(NC(=O)CSc2nc(N)c(-c3ccccc3)c(=O)[nH]2)cc1	-0.59%
Cc1cc(C(=O)NCCc2ccc(Cl)cc2)c(C)o1	13.4%
Cc1nc(C#N)c(NCc2ccc3c(c2)OCO3)o1	12.1%
CSc1cccc(NC(=O)Nc2ccccc2)c1	-4.85%
CN(C)/C=N/c1ncc(C(=O)c2ccc(Cl)cc2Cl)s1	-6.27%
